Source: PubChem BioAssay AID588579 (National Center for Advancing Translational Sciences (NCATS), 2011)
Several values for one entry are separate records, joined by “and”; a condition that tells them apart may be missing. Identical values can stand only once. In all, about 400,000 compounds went through this assay and about 2,200 (0.55%) were called active. Another 1% or so got no clear call; they are omitted. Calls come from the whole dose curve; as a rule, active = well fitted inhibition curve with a large enough effect; inconclusive = small, poorly fitted or top-dose-only effect, or another doubt; inactive = no such curve, though single readings can be large or run the other way. Only a part is listed here, and it is no random draw. Some structures have more than one record in an assay (separate samples or runs), and their calls can disagree.

Target: DNA polymerase kappa (Homo sapiens) (UniProt Q9UBT6)
Assay: qHTS for Inhibitors of Polymerase Kappa
Conditions: purified Pol kappa, fluorescent DNA synthesis assay, 10 min; series mostly up to 60.1 µM; activity, negative = inhibition: at the top concentration
Experimental: The processing and repair of DNA interstrand crosslinks (ICL) in eukaryotic cells are extremely complex, potentially involving multiple DNA repair and damage tolerance pathways, including homologous recombination, nucleotide excision repair, translesion synthesis (TLS), and cell cycle checkpoints.
To that end, in a collaboration between the Oregon Health & Science University and the NIH Chemical Genomics Center a 1536-well high-throughput screen was developed. This fluorescent screen was assayed against the NIH Molecular Libraries Small Molecule Repository (MLSMR) to discover inhibitors of Pol Kappa.
NIH Chemical Genomics Center [NCGC]
NIH Molecular Libraries Probe Centers Network [MLPCN]
Assay Submitter (PI): Stephen Lloyd, Oregon Health & Science University
Three microliters of reagents (buffer in column 3 and 4 as negative control and 10 nM Pol kappa in columns 1, 2, and 5-48) were dispensed into a 1536-well black solid-bottom plate. Compounds (23 nL) were transferred via Kalypsys pin tool equipped with 1536-pin array. The plates were then incubated for 15 min at room temperature, and 1 uL substrate (50 nM final concentration) were then added to start the reaction and kinetically read twice at 0 min and 10 min on the Viewlux reader
% is set by controls: 0 for no effect and ±100 for the full control effect; potency is the fitted concentration of half-maximal effect.

Sequence of UniProt Q9UBT6 (Q9UBT6 whole entry, looked up): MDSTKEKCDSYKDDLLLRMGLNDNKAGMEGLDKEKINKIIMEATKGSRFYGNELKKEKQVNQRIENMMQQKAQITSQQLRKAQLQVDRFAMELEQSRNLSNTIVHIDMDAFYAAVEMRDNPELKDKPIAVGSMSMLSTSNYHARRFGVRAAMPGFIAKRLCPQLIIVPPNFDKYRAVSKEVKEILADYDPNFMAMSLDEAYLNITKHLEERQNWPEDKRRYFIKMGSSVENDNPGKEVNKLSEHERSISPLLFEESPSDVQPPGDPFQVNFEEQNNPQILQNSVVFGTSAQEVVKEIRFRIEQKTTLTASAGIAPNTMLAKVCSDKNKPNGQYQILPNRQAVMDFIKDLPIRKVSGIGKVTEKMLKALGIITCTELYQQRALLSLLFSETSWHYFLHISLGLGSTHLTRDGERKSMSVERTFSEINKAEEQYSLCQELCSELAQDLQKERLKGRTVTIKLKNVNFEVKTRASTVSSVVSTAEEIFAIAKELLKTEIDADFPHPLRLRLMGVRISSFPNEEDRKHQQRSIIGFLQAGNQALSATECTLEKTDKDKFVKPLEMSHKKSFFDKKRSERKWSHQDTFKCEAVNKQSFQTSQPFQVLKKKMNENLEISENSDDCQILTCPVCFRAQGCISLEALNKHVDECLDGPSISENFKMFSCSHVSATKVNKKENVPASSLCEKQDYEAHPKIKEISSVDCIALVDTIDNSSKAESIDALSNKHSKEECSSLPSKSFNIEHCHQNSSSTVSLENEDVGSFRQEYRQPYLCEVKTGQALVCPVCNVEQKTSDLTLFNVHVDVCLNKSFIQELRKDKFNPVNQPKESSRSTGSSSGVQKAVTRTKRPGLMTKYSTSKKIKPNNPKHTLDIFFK

| SMILES | Potency | activity, negative = inhibition |
| --- | --- | --- |
| NC1C=CC=C(C(=O)O)C1 (stereo not drawn) | inactive |  |
| Clc1c(Cl)c(Cl)c(Cl)c(Cl)c1Cl |  | inactive: 17% |
| N#CC(C#N)=Cc1ccc([N+](=O)[O-])c(O)c1 |  | inactive: 5.64% [at 19.4 µM] |
| C[C@H](N)C(=O)NCC(=O)N[C@H]1CSSC[C@@H](C(=O)O)NC(=O)[C@H](CO)NC(=O)[C@H]([C@@H](C)O)NC(=O)[C@H](Cc2ccccc2)NC(=O)[C@H]([C@@H](C)O)NC(=O)[C@H](CCCCN)NC(=O)[C@@H](Cc2c[nH]c3ccccc23)NC(=O)[C@H](Cc2ccccc2)NC(=O)[C@H](Cc2ccccc2)NC(=O)[C@H](CC(N)=O)NC(=O)[C@H](CCCCN)NC1=O |  | inactive: 14.5% |
| Cc1ccc(NC(=O)N(C)C)cc1Cl |  | inactive: 16.5% |
| C[C@@H](COc1ccccc1)N(CCCl)Cc1ccccc1 |  | inactive: -5.98% [at 12 µM] |
| CCCCC/C=C\C/C=C\C/C=C\C/C=C\CCCC(=O)NCc1ccoc1 | active: 7.94 µM |  |
| O=C(O)CO.[NH2-].[NH2-].[Pt+2] |  | inactive: -0.736% [at 19.4 µM] |
| COc1ccc(CN2C(=O)NC(=O)/C(=C/c3ccoc3)C2=O)cc1 | active: 20 µM |  |
| Nc1ccc(CCN2CCN(c3cccc(C(F)(F)F)c3)CC2)cc1 | inactive |  |
| Cc1cccc(C2=NN(c3ccc(Br)cc3)[C@@H](C(=O)N3CCOC3=O)[C@@H]2c2ccc([N+](=O)[O-])cc2)c1 |  | inactive: -5.8% [at 107 µM] |
| CC(C)C[C@H]1C(=O)N2CCC[C@H]2[C@]2(O)O[C@](NC(=O)[C@@H]3C=C4c5cccc6[nH]c(Br)c(c56)CC4N(C)C3)(C(C)C)C(=O)N12 (stereo partly drawn) |  | inactive: 1.53% [at 107 µM] |
| CCCCC/C=C\C/C=C\C/C=C\C/C=C\CCCC(=O)O |  | inactive: 4.56% [at 19.4 µM] |
| NCCCC[C@@H](N)C(=O)O | inactive |  |
| Oc1ccc2c3c1O[C@H]1c4oc5ccccc5c4C[C@@]4(O)C(C2)N(CC2CC2)CCC314 (stereo partly drawn) |  | inactive: 2.33% |
| CC(=O)OCC[N+](C)(C)C | inactive |  |
| Cc1cccc(OCCn2cccc2/C=C2/C(=O)NC(=O)N(Cc3ccco3)C2=O)c1 | active: 28.2 µM |  |
| C[C@H](CCC(=O)O)[C@H]1CC[C@H]2[C@@H]3CC[C@@H]4C[C@H](O)CC[C@]4(C)[C@H]3CC[C@]12C |  | inactive: -30.3% [at 107 µM] |
| Cc1cc(O)c2c(c1)C(=O)c1cc(O)cc(O)c1C2=O |  | inactive: -18.4% [at 19.4 µM] |
| C/C=C1/CN2CC[C@]34C(=C(C=O)[C@H]1C[C@@H]23)Nc1ccccc14 |  | inactive: -9.93% [at 19.4 µM] |
| CC(C)[C@H](NC(=O)[C@H](CC(=O)O)NC(=O)[C@H](Cc1ccccc1)NC(=O)[C@@H](C)NC(=O)[C@@H](N)Cc1ccc(O)cc1)C(=O)N[C@H](C(=O)NCC(N)=O)C(C)C |  | inactive: 14.8% |
| CN1CCc2cc3c(c4c2C1Cc1ccccc1-4)OCO3 (stereo not drawn) |  | inactive: -1.94% [at 107 µM] |
| Cc1cccc2c3c(ccc12)C1=C(C(=O)C3=O)C(C)CO1 (stereo not drawn) | active: 20 µM |  |
| CCCCC/C=C\C/C=C\C/C=C\C/C=C\CCCC(=O)OC(CO)CO |  | inactive: 3.28% [at 19.4 µM] |
| CCN(CC)C(=O)N[C@@H]1C[C@H]2c3cccc4[nH]cc(c34)C[C@@H]2N(C)C1 |  | inactive: -3.23% [at 12 µM] and inactive: -4.16% [at 12 µM] |
| CC(N)C(O)c1ccc(O)c(O)c1 (stereo not drawn) | active: 3.16 µM |  |

| SMILES | Potency | activity, negative = inhibition |
| --- | --- | --- |
| CC(=O)O[C@H]1C2[C@@H](OC(=O)Cc3ccccc3)[C@@H](C)C[C@]2(OC(C)=O)C(=O)/C(C)=C/[C@@H]2[C@H](CC[C@@]13CO3)C2(C)C (stereo partly drawn) |  | inactive: 0.788% |
| N=C(N)c1ccc(-c2ccc(-c3ccc(C(=N)N)cc3)o2)cc1 | active: 12.6 µM |  |
| CC(CO)NC(=O)C1C=C2c3cccc4[nH]cc(c34)CC2N(C)C1 (stereo not drawn) |  | inactive: -4.97% |
| COC[C@H]1OC(=O)c2coc3c2[C@@]1(C)C1=C(C3=O)[C@H]2CCC(=O)[C@@]2(C)C[C@H]1OC(C)=O |  | inactive: -13.6% [at 19.4 µM] |
| O=C1OC(=O)C2C1[C@@H]1CC[C@H]2O1 (stereo partly drawn) |  | inactive: 3.25% [at 107 µM] |
| N#C/C(=C\c1ccc(O)c(O)c1)C(=O)NCCCNC(=O)/C(C#N)=C/c1ccc(O)c(O)c1 | active: 0.299 µM |  |
| C[C@]12CC[C@@H]3c4ccc(O)cc4C[C@@H](CCCCCCCCCS(=O)CCCC(F)(F)C(F)(F)F)[C@H]3[C@@H]1CC[C@@H]2O (stereo partly drawn) |  | inactive: -7.65% |
| Cc1cc(/C=C2\C(=O)NC(=O)N(c3cccc(F)c3)C2=O)c(C)n1-c1cc(C(=O)O)cc(C(=O)O)c1 | active: 50.1 µM |  |
| CC(=O)c1c(O)c(C)c(O)c(Cc2c(O)c3c(c(C(=O)/C=C/c4ccccc4)c2O)OC(C)(C)C=C3)c1O | inactive |  |
| COc1ccc(C(c2ccc(OC)cc2)C(Cl)(Cl)Cl)cc1 |  | inactive: -10.6% |
| CCN1C[C@]2(OC(=O)c3ccccc3NC(C)=O)CCC(OC)C34C5C[C@H]6C(OC)[C@]5(O)[C@](O)(C[C@@H]6OC)C(C[C@@H]32)[C@H]14 (stereo partly drawn) |  | inactive: -4.54% [at 107 µM] |
| COc1ccc(N2C(=O)NC(=O)/C(=C\c3ccc([N+](=O)[O-])s3)C2=O)cc1 | active: 50.1 µM |  |
| Cc1ccc2c(C)c3ccc4ccccc4c3c[n+]2c1 | active: 39.8 µM |  |
| COc1cc2c(cc1O)CC1c3c(cc(O)c(OC)c3-2)CCN1C (stereo not drawn) | inactive |  |
| CC(=O)OC1C2C(OC(=O)Cc3ccccc3)C(C)CC2(OC(C)=O)C(=O)/C(C)=C/C2C(CC[C@@]13CO3)C2(C)C (stereo partly drawn) |  | inactive: -15.6% |
| O=C(Nc1ccc(F)cc1F)c1cccnc1Oc1cccc(C(F)(F)F)c1 | inactive |  |
| Oc1ccc(Cl)cc1Cc1cc(Cl)ccc1O | inactive |  |
| CCCC(C)(COC(N)=O)COC(=O)NC(C)C (stereo not drawn) | inactive |  |
| NC(=O)[C@H](Cc1ccccc1)NC(=O)[C@H](Cc1c[nH]c2ccccc12)NC(=O)[C@@H]1CCCN1C(=O)[C@@H](N)Cc1ccc(O)cc1 |  | inactive: 15.7% |
| Oc1ccc2c3c1O[C@H]1[C@@H](O)CC[C@@]4(O)C(C2)N(CC2CCC2)CCC314 (stereo partly drawn) | inactive |  |
| COc1cccc([C@@]2(O)CCCC[C@@H]2CN(C)C)c1 | inactive |  |
| CCC(=O)O[C@H]1CC[C@H]2[C@@H]3CCC4=CC(=O)CC[C@]4(C)[C@H]3CC[C@]12C | inactive |  |
| CCOc1cncc(/C=C/CCNC)c1 |  | inactive: 17.2% |
| CN1CC(CNC(=O)OCc2ccccc2)CC2c3cccc4c3c(cn4C)CC21 (stereo not drawn) |  | inactive: -12.9% |
| COc1cc2c(cc1O)C[C@H]1c3c(cc(O)c(OC)c3-2)CCN1C | inactive |  |
| COC(=O)[C@@H](Cc1ccccc1)N(Cc1ccccc1)S(=O)(=O)N(Cc1ccccc1)[C@H](Cc1ccccc1)C(=O)OC | inactive |  |

| SMILES | Potency | activity, negative = inhibition |
| --- | --- | --- |
| CC(=O)O[C@H]1C(=O)[C@@]2(C)C([C@H](OC(=O)c3ccccc3)[C@]3(O)C[C@H](OC(=O)[C@H](O)[C@@H](NC(=O)c4ccccc4)c4ccccc4)C(C)=C1C3(C)C)[C@]1(OC(C)=O)CO[C@@H]1C[C@@H]2OC(=O)[C@H](C)NC(=O)c1ccc(-c2c3ccc(=O)cc-3oc3cc(O)ccc23)c(C(=O)O)c1 (stereo partly drawn) | active: 4.74 µM |  |
| C/C=C1/C[C@@H](C)[C@](O)(CO)C(=O)OCC2=CCN3CC[C@@H](OC1=O)[C@@H]23 |  | inactive: -8.67% [at 107 µM] |
| CCCCC/C=C\C/C=C\C/C=C\C/C=C\CCCC(=O)OCCN |  | inactive: -11.5% [at 12 µM] |
| COC1C(C)OC(OC2CC(C)(O)Cc3cc4c(c(O)c32)C(=O)c2c(O)cc3c(c2C4=O)OC2OC3(C)C(O)C(N(C)C)C2O)C(OC)C1(C)OC (stereo not drawn) | active: 25.1 µM |  |
| C=C(C)[C@@H]1CC[C@]2(C(=O)O)CC[C@]3(C)C(CCC4[C@@]5(C)CC[C@H](O)C(C)(C)C5CC[C@]43C)C12 (stereo partly drawn) |  | inactive: 13.1% [at 107 µM] |
| C[C@]12CC[C@@H]3c4ccc(O)cc4C[C@@H](CCCCCCCCCS(=O)CCCC(F)(F)C(F)(F)F)C3[C@@H]1CC[C@@H]2O (stereo partly drawn) |  | inactive: -16.9% |
| CCCCCCC(C)(C)c1ccc([C@@H]2C[C@H](O)CC[C@H]2CCCO)c(O)c1 | inactive |  |
| CN(C)C1CSSSC1 |  | inactive: 18.2% |
| CO/C1=C\C(C)=C\[C@@H](C)[C@@H](O)[C@@H](C)C/C(C)=C/C=C\[C@H](OC)C([C@@H](C)[C@@H](O)[C@H](C)[C@@]2(O)C[C@@H](O)[C@H](C)C(C(C)C)O2)OC1=O (stereo partly drawn) |  | inactive: -14.5% [at 2.39 µM] |
| CCN(CC)C(=O)C(C)Oc1cccc2ccccc12 (stereo not drawn) |  | inactive: 14.6% |
| CCC[C@@](C)(COC(N)=O)COC(=O)NC(C)C |  | inactive: -6.93% [at 12 µM] |
| CC[C@@]1(O)CC(O)c2c(cc3c(c2O)C(=O)c2c(O)ccc(O)c2C3=O)C1C(=O)OC (stereo partly drawn) | active: 25.1 µM |  |
| Oc1ccc2c3c1O[C@H]1[C@@H](O)CC[C@@]4(O)[C@@H](C2)N(CC2CCC2)CC[C@]314 | inactive |  |
| CS(=O)c1ccc(-c2nc(-c3ccc(F)cc3)c(-c3ccncc3)[nH]2)cc1 (stereo not drawn) | inactive |  |
| CN1C[C@H](CNC(=O)OCc2ccccc2)C[C@@H]2c3cccc4c3c(cn4C)C[C@H]21 | inactive |  |
| CC(CCC(=O)O)C1CCC2C3C(O)C[C@@H]4CC(O)CC[C@@]4(C)C3CC[C@@]12C (stereo partly drawn) |  | inactive: -1.37% |
| O=C(O)c1cc(O)c(O)c(O)c1 |  | inactive: -22.4% |
| CCCCCCCCCOc1ccc2[nH]cc(CCN)c2c1 |  | inactive: -0.848% [at 19.4 µM] |
| Clc1ccc(COC(Cn2ccnc2)c2ccc(Cl)cc2Cl)cc1 (stereo not drawn) | inactive |  |
| Cc1cccc(N2C(=O)NC(=O)/C(=C/c3cc4c(cc3[N+](=O)[O-])OCO4)C2=O)c1 | active: 89.1 µM |  |
| CC(C)C[C@H]1C(=O)N2CCC[C@H]2[C@]2(O)O[C@](NC(=O)C3C=C4c5cccc6[nH]c(Br)c(c56)C[C@H]4N(C)C3)(C(C)C)C(=O)N12 (stereo partly drawn) |  | inactive: -3.87% [at 107 µM] |
| COc1cccc([C@@]2(O)CCCCC2CN(C)C)c1 (stereo partly drawn) | inactive |  |
| CO[C@H]1C=C2CCN(C)[C@@H]2[C@@H]2c3cc4c(cc3C(=O)O[C@H]21)OCO4 |  | inactive: -12.6% [at 12 µM] |
| CC(C)Nc1nc(Cl)nc(NC(C)C)n1 |  | inactive: -7.31% [at 107 µM] |
| CCOc1cccc(OCC)c2c(C)[n+](CC3CCCO3)c(C)c1-2 (stereo not drawn) | active: 25.1 µM |  |
| O=c1cc(-c2ccc(O)cc2)oc2c([C@H]3O[C@@H](CO)[C@@H](O)[C@@H](O)[C@@H]3O)c(O)cc(O)c12 |  | inactive: -9.38% [at 12 µM] |
